Self-cleavage data for 167 variants are collected here from the RNAGym collection of RNA variant scans (doi:10.7554/elife.90254).

Read counts are not given, so values of variants with three or more changes are uncertain.

First the molecules themselves.
B1: OR4K15 (parent)
chain: GUUAACGGUCAUAGGCCAUGGAAACUAGGAGCACCAUUUCGCUGCCAGUGAAGAAAUGAACAAAGAAAAUCUGGGCCAGGCAGGCAUCAAAAGAAAUAGUCUUGCGCUCAACCAGAAAGUCUGUAAUCAUUUUAAGGGUA

This data set covers variants of B1. Put plainly: self-cleavage, relative activity (ratio to wild type); higher = more cleavage; in vitro, sequencing; the parent is a self-cleaving ribozyme.
Turning to A51U A66G A134G, the self-cleavage is 1.7.

As for A51G A59G A86U U131C G138C, the self-cleavage was determined as 1.64.

With A52G U57C A82G A111G, the self-cleavage was 0.03.

On to G50A A59U A78U U122C U139A, for which the self-cleavage was 0.09.

For the variant A51U A69G A117U, the self-cleavage stood at 0.46.

As for A52U A96U U97C A111G U122C, the self-cleavage is 0.

As to A52G A66C U87A, the self-cleavage was 1.09.

Consider A52G A54G A56U A90G, for which the self-cleavage was 1.18.

Regarding A51U U72A C109U, the self-cleavage is 0.08.

For A52G A90G A92U G119A, the self-cleavage came to 1.07.

G50U A67G A90G: the self-cleavage is 1.37.

In the case of A51G A54G A63G A89G A95G A118G, the self-cleavage turned out to be 0.78.

In the case of A51G A67U A96G A117G, the self-cleavage came to 1.45.

In the case of A51U G79U U120C, the self-cleavage came out at 0.05.

With A51U A110G A117G, the self-cleavage was found to be 0.06.

A51G A98G C109U: the self-cleavage was found to be 0.13.

Consider A52G U108C A111G, for which the self-cleavage came to 0.04.

In the case of A51C A68G A92G, the self-cleavage was determined as 0.95.

Take A51G U87C G93A: the self-cleavage amounted to 2.11.

With A52U U102C A116U, the self-cleavage turned out to be 0.21.

For A51U A82U U127A U131C, the self-cleavage stood at 0.2.

Take A54G A56G A66G A68G A69G A125G: the self-cleavage was found to be 0.22.

For the variant A52G A62G G79A, the self-cleavage turned out to be 0.18.

Consider A52G U72C A114G, for which the self-cleavage was 1.71.

With A52G A67G U124C, the self-cleavage was determined as 1.58.

A52U A56G A86G U100C A110G: the self-cleavage came out at 0.19.

With A52G A55G U127C, the self-cleavage amounted to 0.73.

Regarding A51G A82U U139C, the self-cleavage is 0.18.

Consider A51G U102G U103C U108A, for which the self-cleavage stood at 0.02.

Regarding A54G A56G A94G U124A, the self-cleavage is 0.55.

For A51U A90G A95G, the self-cleavage was determined as 2.19.

Consider A52G A54G G83A, for which the self-cleavage is 1.12.

As for A52G C77U A82C, the self-cleavage turned out to be 0.15.

As for U49G A60U A92G U100C, the self-cleavage is 2.13.

Consider A54G A55G U70C A96G A98G, for which the self-cleavage came out at 0.15.

For A51G A56G A67G U70G U97G, the self-cleavage was 1.18.

Regarding U49C U72A A78G, the self-cleavage is 0.19.

As to G50A A51G U100A, the self-cleavage amounted to 0.46.

Regarding G50A A54G U87C, the self-cleavage is 1.23.

A51G A89C U108C: the self-cleavage came out at 0.04.

Regarding U49C U72A A89G A95G, the self-cleavage stood at 0.02.

Consider A52G A54G A67U C85G, for which the self-cleavage was 0.73.

As for A51G A56U U103C, the self-cleavage turned out to be 0.46.

For the variant A51G U70C U127C U133C, the self-cleavage came out at 0.2.

Regarding G53A A86U A116G A126G, the self-cleavage worked out at 0.46.

Regarding A51G A67G A89G, the self-cleavage stood at 1.49.

For the variant A54G A55G U130C, the self-cleavage amounted to 1.07.

U49C U87C A110G: the self-cleavage is 0.11.

In the case of A51G A54G A59G A94U G119U U131C, the self-cleavage was determined as 1.58.

With A51G A62U A117G, the self-cleavage worked out at 2.14.

For the variant A54G A55U U103C, the self-cleavage is 0.32.

For the variant A51G U57C C77A, the self-cleavage worked out at 0.76.

With A51G C61U A68G A126G, the self-cleavage came out at 1.78.

Turning to A52G A67G U87C, the self-cleavage stood at 1.25.

A52G A55G A56G A63G A82G G84A U103A U122C A125G: the self-cleavage worked out at 0.14.

Regarding G53A A54G A60G, the self-cleavage turned out to be 1.32.

In the case of A52U A63G A89G A91G, the self-cleavage worked out at 1.75.

With U49C U70A A78U U122C, the self-cleavage is 0.04.

On to G50A A52G A110C A114G A116G, for which the self-cleavage was 0.02.

Turning to A52G A68G A110G U127C, the self-cleavage came out at 0.08.

Regarding A52G A94G C105U U131C, the self-cleavage came to 0.06.

Take A52G A55G G137C: the self-cleavage came to 1.16.

Regarding A52U U57C U120A G136U, the self-cleavage worked out at 0.73.

On to A51G A63G A117G, for which the self-cleavage was found to be 2.51.

Regarding A52G A114C U122C, the self-cleavage was 0.02.

Turning to A52G A86U A96G A116C, the self-cleavage stood at 0.21.

Consider G53U U72C A111U, for which the self-cleavage came to 0.01.

Turning to G53A A91G U103C A114G A129U, the self-cleavage was 0.06.

Turning to G50A A51G A54G A82G, the self-cleavage stood at 0.66.

A52G A78G A86G A118G: the self-cleavage stood at 0.11.

For A52C A56U A68U, the self-cleavage amounted to 1.49.

G50A U103A A135G A140G: the self-cleavage was found to be 0.6.

In the case of G50A A54G A78U U102C U103A, the self-cleavage stood at 0.02.

For the variant U49C U72C A91G C113U, the self-cleavage turned out to be 0.02.

For A51U U102A A118G, the self-cleavage came out at 0.4.

In the case of A52U U70A U132A, the self-cleavage turned out to be 0.89.

As to A52G U122C U131C, the self-cleavage was found to be 0.6.

For U49C U124C U131C, the self-cleavage turned out to be 0.44.

For A52G C88G A91G, the self-cleavage worked out at 0.99.

Take G53A A55G A66G A90G: the self-cleavage stood at 0.94.

Turning to A52U A90U A110C, the self-cleavage came to 0.24.

Take A52G U72A A110U: the self-cleavage is 0.21.

Regarding A52G A90G A94G A96G, the self-cleavage stood at 0.64.

Take A52G A59G A62U A94G U97C: the self-cleavage is 0.89.

In the case of A51G A96G A126G, the self-cleavage came to 1.57.

For the variant A52G A54C A110G, the self-cleavage worked out at 0.03.

Turning to A51U A64G G104U U120C, the self-cleavage stood at 0.

In the case of A52U U102A U108C, the self-cleavage was found to be 0.

Regarding A52G U87C U102C A129G, the self-cleavage was 1.83.

For the variant A52G A89U U122A, the self-cleavage worked out at 1.2.

With U49C U70C U102C, the self-cleavage was found to be 1.6.

Regarding A52G A78G C113G U127A, the self-cleavage was determined as 0.04.

Regarding A52G U100C G106A, the self-cleavage was 0.01.

Turning to A52G A67G A82C A111G A118U, the self-cleavage worked out at 0.01.

As for A52G A117G A129G, the self-cleavage was determined as 1.01.

As to A51G A59G A62U U70C, the self-cleavage stood at 0.82.

In the case of A51G A67G A90G A96G, the self-cleavage is 1.41.

Consider A54G A56G A117U U122C, for which the self-cleavage came to 0.58.

Turning to A52G A69G A91G, the self-cleavage amounted to 1.29.

A52G A68G A94G U102C: the self-cleavage came out at 1.04.

For A52G A55G A86U U102C, the self-cleavage was found to be 1.36.

Regarding A54G A55G A92G A95G U131C, the self-cleavage amounted to 1.34.

For A51C U72C A118G, the self-cleavage was 0.17.

Turning to A51U A62G A67C U87C, the self-cleavage came to 0.91.

Consider A51C G83A A126C, for which the self-cleavage amounted to 0.86.

Take A51G A59G A135C: the self-cleavage was determined as 0.97.

As for A51U A55G A66C U100C U108C, the self-cleavage is 0.

For the variant A51G A60U A66G A86G U131C, the self-cleavage is 1.18.

On to A51G A111G G115U, for which the self-cleavage was determined as 0.01.

For the variant A52G A60U U70C A95G, the self-cleavage came to 1.55.

Regarding A51G A86G U124C, the self-cleavage amounted to 0.66.

Turning to A51G A62G U132C, the self-cleavage turned out to be 1.65.

Regarding U49G A55G A111G A140G, the self-cleavage was 0.03.

In the case of A51G U72A A118G, the self-cleavage was 0.18.

For A51G A68U A78U, the self-cleavage stood at 0.31.

A51G A95U U124A A134G: the self-cleavage was found to be 0.78.

Turning to A52G A66U A116G, the self-cleavage was 0.24.

Turning to A51G A60G U120C U132A, the self-cleavage is 0.45.

A51G A90G C105U: the self-cleavage came out at 0.04.

For the variant A52G U87C A95G A114U, the self-cleavage stood at 0.05.

Take A52G A82U A135U: the self-cleavage was 0.1.

Consider A52G A54G A92G U102C U131C, for which the self-cleavage came out at 2.27.

On to A51G A69G A95G A134G, for which the self-cleavage worked out at 1.44.

As to A51G U102C U120C, the self-cleavage turned out to be 1.96.

Consider A52G G80A U133A A140G, for which the self-cleavage worked out at 0.05.

On to A52G U70A A125G, for which the self-cleavage stood at 0.57.

Consider A51G A95G U102C U108C, for which the self-cleavage came to 0.

As to A51G A64G G79C A82U U139A, the self-cleavage was 0.16.

For the variant A52G A63G A82G A92G C105U, the self-cleavage is 0.05.

A51C U72A A91G: the self-cleavage came to 0.15.

As for U49G A86G U108A, the self-cleavage is 0.01.

A52G A66G A68G: the self-cleavage was 1.2.

For A51G A68U U124C, the self-cleavage is 1.3.

Turning to U49C U57C A126G, the self-cleavage stood at 0.38.

Take A51G A52G A55G U70C: the self-cleavage worked out at 0.63.

A51G A59G A67U A118G: the self-cleavage was found to be 0.89.

Consider A52U A66G U87C, for which the self-cleavage stood at 1.18.

G50A A59G A92G: the self-cleavage is 1.72.

For U49C U122C G136A, the self-cleavage came out at 2.71.

For A51G A67G U130C, the self-cleavage was found to be 1.19.

With A51G U70C A82C A86G A129U, the self-cleavage came out at 0.05.

As for A51G A66G U87C A110G, the self-cleavage is 0.13.

Take A51U A78G U102C: the self-cleavage was 0.28.

A52G A62G A86G: the self-cleavage stood at 0.85.

As for A51G A96G A116G, the self-cleavage is 0.29.

Turning to U49C U70A A90G, the self-cleavage worked out at 0.62.

For A52G A63G A125G, the self-cleavage was 0.62.

In the case of A52G U103C A135U, the self-cleavage came to 0.78.

On to A52G A56U A60G, for which the self-cleavage amounted to 0.53.

A52G A96G U124C: the self-cleavage turned out to be 1.13.

Regarding A52G G58U A95G C113U, the self-cleavage is 0.07.

A51G A63G U100G U103A A118G: the self-cleavage came to 0.07.

Turning to A52U A67G A126G, the self-cleavage came out at 1.21.

For A52G A62G U70C A78U G80A A82G U132C, the self-cleavage stood at 0.12.

For the variant U49G A66G U131C U132C, the self-cleavage came to 0.57.

On to A51G A63G A82G, for which the self-cleavage was determined as 0.91.

As for A52G A92U U133C, the self-cleavage was 1.83.

Regarding A52G U57A A129G, the self-cleavage turned out to be 0.75.

For the variant A51U A55G A62G, the self-cleavage came to 1.29.

As to A52G A110G A116G, the self-cleavage was determined as 0.03.

Take A52G U120C U132C: the self-cleavage stood at 0.38.

As for G53U A82G A117G, the self-cleavage came out at 0.98.

Turning to A52G A78C A135U, the self-cleavage came out at 0.17.

Take A52G A63G U108A: the self-cleavage was found to be 0.02.

As for A51U A54U A59G A60G A62G, the self-cleavage was 0.75.

A51G U87C U131C: the self-cleavage came to 0.85.

Take A52G A68G A94G: the self-cleavage turned out to be 1.3.
